# Measurements taken from the supplement of paper PMC9334596.
# Where “and” joins values, the source holds several entries; their conditions need not be identical. Identical values can stand only once. In all, about 5,300 compounds were measured (“PER2::LUC luminescence relative to vehicle control”: median about 0.96, highest 2% from about 1.3 on). Some of the results follow.
# System: mPer2Luc MEF
# Assay: PER2::LUC luminescence relative to vehicle control (fold of vehicle); higher = higher PER2::LUC reporter signal
# Details: 10 µM
# Outline: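 Compounds from commercial libraries were added at 10 μM to 384-well plates seeded 48 h earlier with ~3000 mPer2Luc mouse embryonic fibroblasts per well. The cells were kept in DMEM with 10% FBS at 37 °C and 5% CO2. Luminescence was read with ONE-Glo 24 h and 30 h after treatment, then an alamarBlue viability assay was run. Values are PER2::LUC luminescence relative to vehicle control, as fold change.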
Structure (SMILES),PER2::LUC luminescence (time after treatment 24 h),PER2::LUC luminescence (time after treatment 30 h)
Cc1ccc(-c2cc(C(F)(F)F)nn2-c2ccc(S(N)(=O)=O)cc2)cc1,0.919,0.986
CC(C)[N+]1(C)[C@@H]2CC[C@H]1C[C@@H](OC(=O)C(CO)c1ccccc1)C2 (stereo not given in full),0.769,0.969
C=CCn1c(=O)c2c(nc(-c3ccccc3)n2C)n(C)c1=O,0.98,0.951
OCCn1cc(-c2ccc3c(c2)CC/C3=N\O)c(-c2ccncc2)n1,1.15,1.3
CCC(C)(C)N=C(NC#N)Nc1cccnc1,0.948,0.936
CN1CCc2nc(C(=O)N[C@@H]3C[C@@H](C(=O)N(C)C)CC[C@@H]3NC(=O)C(=O)Nc3ccc(Cl)cn3)sc2C1,1.09,1.04
CCOC(=O)C1=C(C)NC(=S)NC1c1cccc(O)c1 (stereo not given),1.06,1.07
N#Cc1c(N(CC(=O)O)CC(=O)O)sc(C(=O)O)c1CC(=O)O,1.18,1.28
CC[C@H]1OC(=O)[C@H](C)[C@@H](O[C@H]2C[C@@](C)(OC)[C@@H](O)[C@H](C)O2)[C@H](C)[C@@H](O[C@@H]2O[C@H](C)C[C@H](N(C)C)[C@H]2O)[C@](C)(O)C[C@@H](C)CN(C)[C@H](C)[C@@H](O)[C@]1(C)O,0.796 and 0.785,0.894 and 0.822
O=C1c2ccccc2C(=O)c2oc(-c3ccccc3)nc21,1.15,0.538
COCCNC(=O)COc1ccc(OCCNC[C@H](O)COc2ccccc2)cc1,0.945,0.959
CN[C@H]1CC[C@@H](c2ccc(Cl)c(Cl)c2)c2ccccc21,0.701 and 0.651,0.687 and 0.651
O=C(/C=C/c1ccc(O)c(O)c1)O[C@H](Cc1ccc(O)c(O)c1)C(=O)O,0.985,0.934
O=C1/C(=C/c2ccc(O)c(O)c2)Oc2c1ccc(O[C@@H]1O[C@H](CO)[C@@H](O)[C@H](O)[C@H]1O)c2O,0.983,0.93
CC(C)C[C@H](N)CS,1.03,0.835
C=C1O[C@@](CO)(n2cnc3c(N)ncnc32)[C@H](O)[C@@H]1O,1.07,0.943
COC(=O)[C@H](Cc1ccccc1)NC(=O)[C@@H](N)CC(=O)O,0.847,1.18
C[C@H]1CC[C@@]2(OC1)O[C@H]1C[C@H]3[C@@H]4CC[C@@H]5C[C@@H](O)CC[C@]5(C)[C@H]4CC[C@]3(C)[C@H]1[C@@H]2C,1.01,1.04
C1CCC(N=C(NC23CC4CC(CC(C4)C2)C3)N2CCOCC2)CC1,0.978,0.95
COC(=O)c1c(OC)cc2c(c1C)Oc1c(Cl)c(O)c(Cl)c(C)c1C(=O)O2,0.952,0.932

Structure (SMILES),PER2::LUC luminescence (time after treatment 24 h),PER2::LUC luminescence (time after treatment 30 h)
COc1cc(CNC(=O)CCCC/C=C/C(C)C)ccc1O,0.847,0.928
O=C(NCCCN1CCOCC1)c1ccc(Cl)cc1,1.08,1.1
O=C(O)C[C@H]1CC[C@H](c2ccc(-c3ccc(Nc4ccc(C(F)(F)F)nc4)cn3)cc2)CC1,1.11,1.13
CNC(=O)[C@@H](NC(=O)[C@H](CC(C)C)[C@H](O)C(=O)NO)C(C)(C)C,0.485,0.866
C[C@]12CC[C@@H]3c4ccc(O)cc4C[C@@H](CCCCCCCCC[S+]([O-])CCCC(F)(F)C(F)(F)F)[C@H]3[C@@H]1CC[C@@H]2O (stereo not given in full),1.02,1.01
C=C[C@](C)(O)CC[C@@H]1[C@@]2(C)CCCC(C)(C)[C@@H]2CC[C@@]1(C)O,0.549,0.865
CO/N=C(\C(=O)N[C@@H]1C(=O)N2C(C(=O)O)=C(COC(C)=O)CS[C@H]12)c1csc(N)n1,0.908,0.822
Cc1cc(Oc2ccc3nc(COc4ccc(CC5SC(=O)NC5=O)cc4)n(C)c3c2)cc(C)c1N (stereo not given),1.1,1.03
CC(C)Oc1ccc2c(=O)c(-c3ccccc3)coc2c1,1.9,1.92
CC(C)c1c2cc(-c3ccnc(NC4CCC(NC5CCOCC5)CC4)n3)ccc2nn1C (stereo not given),0.008,0.002
Cc1cc2cc3c(C)cc(=O)oc3c(C)c2o1,0.953 and 0.55,0.902 and 1.1
CC(=O)Nc1c(I)cc(I)c(C(=O)O)c1I,1.03 and 0.947,0.949 and 1.27
CC(=O)O[C@]1(C)CC[C@@]23C[C@H]1C(C)(C)[C@@H]2CC[C@H]3C,0.953,0.904
CC(=O)Nc1nnc(S(N)(=O)=O)s1,0.944,1.2
CCCCOc1ccc(C(=O)Nc2ccc(F)cc2F)cc1,1.29,1.34
Nc1nc(OCc2cc(Br)cs2)c2[nH]cnc2n1,0.785,0.946
Clc1ccc2nsnc2c1NC1=NCCN1,1.02,0.976
Cc1cc(Nc2cc(N3CCN(C)CC3)nc(Sc3ccc(NC(=O)C4CC4)cc3)n2)n[nH]1,0.563,0.414
O=C(O)CCC(C(=O)O)N1C(=O)c2ccccc2C1=O (stereo not given),0.925,1.06
NC1(Cc2ccc(Cl)cc2)CCN(c2ncnc3[nH]ccc23)CC1,0.438,0.584
